Assay results: the supplement of paper PMC9151546
Repeats are few or missing, and single values can be far off.

How the values were obtained:
CHO-K1 [1] = assay: micronucleus frequency (% of nucleated events); higher = more micronuclei (genotoxic)
CHO-K1 [2] = assay: hypodiploid nuclei frequency (% of nucleated events); higher = more hypodiploid events (aneugenic)
CHO-K1 [3] = assay: relative survival (nuclei to bead ratio vs DMSO control) (% of vehicle control); higher = more surviving cells
Procedure: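 Flow-cytometric in vitro micronucleus assay (Litron MicroFlow) in CHO-K1 cells in 96-well plates, 19 concentrations (4.5-200 µM, n=1 per concentration). Without S9, cells were exposed for 24 h and sampled at 48 h. With Aroclor 1254-induced rat liver S9, cells were exposed for 3-4 h and sampled at 27-28 h. Read-outs are %MN and %hypodiploid nuclei relative to nucleated events, and relative survival as the nuclei-to-bead ratio versus the 1% DMSO vehicle control (x100).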
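For hypodiploid nuclei frequency (% of nucleated events) in this document: hypodiploid nuclei gated on a flow cytometer with 488 nm excitation after SYTOX Green staining, cultures at 37 °C, positive controls vinblastine without S9 and cyclophosphamide with S9.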
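For micronucleus frequency (% of nucleated events) in this document: cells lysed with nuclei stained by SYTOX Green, then micronucleus-gated events counted against nucleated events by flow cytometry with 488 nm excitation.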
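For relative survival (nuclei to bead ratio vs DMSO control) in this document: Lysed-cell nuclei stained with SYTOX Green and counted against counting beads by flow cytometry at 488 nm excitation, with vinblastine (no S9) and cyclophosphamide (plus S9) as positive controls.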

CCOC(=O)C(C)(C)Oc1ccc(Cl)cc1 [Clofibrate]
Details	hypodiploid nuclei frequency, CHO-K1 [2] [%]	micronucleus frequency, CHO-K1 [1] [%]	relative survival, CHO-K1 [3]
concentration: 4.5 (µM), S9 metabolic activation: with S9, exposure time: 3-4 hours	0.12	1.68	127
concentration: 4.5 (µM), S9 metabolic activation: without S9, exposure time: 24 hours	0.48	1.44	115
concentration: 5.63 (µM), S9 metabolic activation: with S9, exposure time: 3-4 hours	0.24	1.44	123
concentration: 5.63 (µM), S9 metabolic activation: without S9, exposure time: 24 hours	0.6	1.88	131
concentration: 7.04 (µM), S9 metabolic activation: with S9, exposure time: 3-4 hours	0.2	1.28	106
concentration: 7.04 (µM), S9 metabolic activation: without S9, exposure time: 24 hours	0.7	1.3	111
concentration: 8.8 (µM), S9 metabolic activation: with S9, exposure time: 3-4 hours	0.1	1.32	113
concentration: 8.8 (µM), S9 metabolic activation: without S9, exposure time: 24 hours	0.68	1.68	117
concentration: 11 (µM), S9 metabolic activation: with S9, exposure time: 3-4 hours	0.26	1.18	115
concentration: 11 (µM), S9 metabolic activation: without S9, exposure time: 24 hours	0.74	1.54	141
concentration: 13.7 (µM), S9 metabolic activation: with S9, exposure time: 3-4 hours	0.24	2.64	117
concentration: 13.7 (µM), S9 metabolic activation: without S9, exposure time: 24 hours	0.6	2.26	115
concentration: 17.2 (µM), S9 metabolic activation: with S9, exposure time: 3-4 hours	0.18	1.48	94.4
concentration: 17.2 (µM), S9 metabolic activation: without S9, exposure time: 24 hours	0.84	1.66	105
concentration: 21.5 (µM), S9 metabolic activation: with S9, exposure time: 3-4 hours	0.3	1.28	122
concentration: 21.5 (µM), S9 metabolic activation: without S9, exposure time: 24 hours	0.52	1.92	115
concentration: 26.8 (µM), S9 metabolic activation: with S9, exposure time: 3-4 hours	0.34	1.36	107
concentration: 26.8 (µM), S9 metabolic activation: without S9, exposure time: 24 hours	0.58	1.38	140
concentration: 33.6 (µM), S9 metabolic activation: with S9, exposure time: 3-4 hours	0.18	1	131
concentration: 33.6 (µM), S9 metabolic activation: without S9, exposure time: 24 hours	0.76	1.72	112
concentration: 41.9 (µM), S9 metabolic activation: with S9, exposure time: 3-4 hours	0.16	1.64	113
concentration: 41.9 (µM), S9 metabolic activation: without S9, exposure time: 24 hours	0.72	1.58	126
concentration: 52.4 (µM), S9 metabolic activation: with S9, exposure time: 3-4 hours	0.26	1.34	93.8
concentration: 52.4 (µM), S9 metabolic activation: without S9, exposure time: 24 hours	0.54	1.68	131
concentration: 65.5 (µM), S9 metabolic activation: with S9, exposure time: 3-4 hours	0.34	1	98.5
concentration: 65.5 (µM), S9 metabolic activation: without S9, exposure time: 24 hours	0.86	1.18	118
concentration: 81.9 (µM), S9 metabolic activation: with S9, exposure time: 3-4 hours	0.3	1.5	99.7
concentration: 81.9 (µM), S9 metabolic activation: without S9, exposure time: 24 hours	0.82	1.74	130
concentration: 102 (µM), S9 metabolic activation: with S9, exposure time: 3-4 hours	0.18	0.88	102
concentration: 102 (µM), S9 metabolic activation: without S9, exposure time: 24 hours	1.06	1.16	98.1
concentration: 128 (µM), S9 metabolic activation: with S9, exposure time: 3-4 hours	0.14	1.42	108
concentration: 128 (µM), S9 metabolic activation: without S9, exposure time: 24 hours	0.9	1.72	117
concentration: 160 (µM), S9 metabolic activation: with S9, exposure time: 3-4 hours	0.3	1.26	106
concentration: 160 (µM), S9 metabolic activation: without S9, exposure time: 24 hours	1.1	1.84	108
concentration: 200 (µM), S9 metabolic activation: with S9, exposure time: 3-4 hours	0.18	1.36	93.3
concentration: 200 (µM), S9 metabolic activation: without S9, exposure time: 24 hours	1.6	2.46	98.6

O=c1[nH]c(=O)[nH]c(=O)[nH]1 [Cyanuric acid]
Details	hypodiploid nuclei frequency, CHO-K1 [2] [%]	micronucleus frequency, CHO-K1 [1] [%]	relative survival, CHO-K1 [3]
concentration: 4.48 (µM), S9 metabolic activation: with S9, exposure time: 3-4 hours	0.34	1.78	155
concentration: 4.48 (µM), S9 metabolic activation: without S9, exposure time: 24 hours	0.34	1.06	108
concentration: 5.6 (µM), S9 metabolic activation: with S9, exposure time: 3-4 hours	0.16	1.88	152
concentration: 5.6 (µM), S9 metabolic activation: without S9, exposure time: 24 hours	0.68	1.16	106
concentration: 7 (µM), S9 metabolic activation: with S9, exposure time: 3-4 hours	0.38	1.52	135
concentration: 7 (µM), S9 metabolic activation: without S9, exposure time: 24 hours	0.58	1.46	105
concentration: 8.75 (µM), S9 metabolic activation: with S9, exposure time: 3-4 hours	0.22	1.2	112
concentration: 8.75 (µM), S9 metabolic activation: without S9, exposure time: 24 hours	0.6	1.6	102
concentration: 10.9 (µM), S9 metabolic activation: with S9, exposure time: 3-4 hours	0.18	1.58	159
concentration: 10.9 (µM), S9 metabolic activation: without S9, exposure time: 24 hours	0.42	1.22	99.5
concentration: 13.7 (µM), S9 metabolic activation: with S9, exposure time: 3-4 hours	0.2	1.98	124
concentration: 13.7 (µM), S9 metabolic activation: without S9, exposure time: 24 hours	0.6	1.32	118
concentration: 17.1 (µM), S9 metabolic activation: with S9, exposure time: 3-4 hours	0.3	2.7	114
concentration: 17.1 (µM), S9 metabolic activation: without S9, exposure time: 24 hours	0.68	1.4	115
concentration: 21.4 (µM), S9 metabolic activation: with S9, exposure time: 3-4 hours	0.28	1.98	92.9
concentration: 21.4 (µM), S9 metabolic activation: without S9, exposure time: 24 hours	0.46	1.5	105
concentration: 26.7 (µM), S9 metabolic activation: with S9, exposure time: 3-4 hours	0.26	1.32	171
concentration: 26.7 (µM), S9 metabolic activation: without S9, exposure time: 24 hours	0.66	1.14	102
concentration: 33.4 (µM), S9 metabolic activation: with S9, exposure time: 3-4 hours	0.18	1.58	167
concentration: 33.4 (µM), S9 metabolic activation: without S9, exposure time: 24 hours	0.6	1.3	98.5
concentration: 41.7 (µM), S9 metabolic activation: with S9, exposure time: 3-4 hours	0.26	2.04	194
concentration: 41.7 (µM), S9 metabolic activation: without S9, exposure time: 24 hours	0.6	1.68	99
concentration: 52.2 (µM), S9 metabolic activation: with S9, exposure time: 3-4 hours	0.14	1.66	134
concentration: 52.2 (µM), S9 metabolic activation: without S9, exposure time: 24 hours	0.54	2.32	100
concentration: 65.2 (µM), S9 metabolic activation: with S9, exposure time: 3-4 hours	0.22	1.86	148
concentration: 65.2 (µM), S9 metabolic activation: without S9, exposure time: 24 hours	0.7	1.7	97.6
concentration: 81.5 (µM), S9 metabolic activation: with S9, exposure time: 3-4 hours	0.16	1.36	128
concentration: 81.5 (µM), S9 metabolic activation: without S9, exposure time: 24 hours	1	2.34	97.1
concentration: 102 (µM), S9 metabolic activation: with S9, exposure time: 3-4 hours	0.2	2.14	131
concentration: 102 (µM), S9 metabolic activation: without S9, exposure time: 24 hours	0.5	1.76	117
concentration: 127 (µM), S9 metabolic activation: with S9, exposure time: 3-4 hours	0.28	2.4	130
concentration: 127 (µM), S9 metabolic activation: without S9, exposure time: 24 hours	0.68	2.18	96.2
concentration: 159 (µM), S9 metabolic activation: with S9, exposure time: 3-4 hours	0.28	1.58	149
concentration: 159 (µM), S9 metabolic activation: without S9, exposure time: 24 hours	0.88	2.46	90.8
concentration: 199 (µM), S9 metabolic activation: with S9, exposure time: 3-4 hours	0.32	2.14	136
concentration: 199 (µM), S9 metabolic activation: without S9, exposure time: 24 hours	0.78	2.42	93.7

C[C@@H]1C[C@@H]([C@H](O)CC2CC(=O)NC(=O)C2)C(=O)[C@@H](C)C1 [Cycloheximide]
Details	hypodiploid nuclei frequency, CHO-K1 [2] [%]	micronucleus frequency, CHO-K1 [1] [%]	relative survival, CHO-K1 [3]
concentration: 4.5 (µM), S9 metabolic activation: with S9, exposure time: 3-4 hours	0.26	2.22	74.6
concentration: 4.5 (µM), S9 metabolic activation: without S9, exposure time: 24 hours	–	–	43
concentration: 5.63 (µM), S9 metabolic activation: with S9, exposure time: 3-4 hours	0.24	2.54	73.7
concentration: 5.63 (µM), S9 metabolic activation: without S9, exposure time: 24 hours	–	–	34.6
concentration: 7.04 (µM), S9 metabolic activation: with S9, exposure time: 3-4 hours	0.34	2.76	72.5
concentration: 7.04 (µM), S9 metabolic activation: without S9, exposure time: 24 hours	–	–	37.6
concentration: 8.8 (µM), S9 metabolic activation: with S9, exposure time: 3-4 hours	0.46	3.22	79.3
concentration: 8.8 (µM), S9 metabolic activation: without S9, exposure time: 24 hours	–	–	37.7
concentration: 11 (µM), S9 metabolic activation: with S9, exposure time: 3-4 hours	0.44	4.42	74.2
concentration: 11 (µM), S9 metabolic activation: without S9, exposure time: 24 hours	–	–	39.5
concentration: 13.7 (µM), S9 metabolic activation: with S9, exposure time: 3-4 hours	0.32	3.52	68.4
concentration: 13.7 (µM), S9 metabolic activation: without S9, exposure time: 24 hours	–	–	40.6
concentration: 17.2 (µM), S9 metabolic activation: with S9, exposure time: 3-4 hours	0.36	3.72	59.5
concentration: 17.2 (µM), S9 metabolic activation: without S9, exposure time: 24 hours	–	–	38.4
concentration: 21.5 (µM), S9 metabolic activation: with S9, exposure time: 3-4 hours	0.38	5.4	54
concentration: 21.5 (µM), S9 metabolic activation: without S9, exposure time: 24 hours	–	–	38.1
concentration: 26.8 (µM), S9 metabolic activation: with S9, exposure time: 3-4 hours	0.26	3.96	55.1
concentration: 26.8 (µM), S9 metabolic activation: without S9, exposure time: 24 hours	–	–	31.6
concentration: 33.6 (µM), S9 metabolic activation: with S9, exposure time: 3-4 hours	0.34	7.32	52.7
concentration: 33.6 (µM), S9 metabolic activation: without S9, exposure time: 24 hours	–	–	31.9
concentration: 41.9 (µM), S9 metabolic activation: with S9, exposure time: 3-4 hours	0.33	5.09	46.2
concentration: 41.9 (µM), S9 metabolic activation: without S9, exposure time: 24 hours	–	–	30.8
concentration: 52.4 (µM), S9 metabolic activation: with S9, exposure time: 3-4 hours	0.43	6.52	48.9
concentration: 52.4 (µM), S9 metabolic activation: without S9, exposure time: 24 hours	–	–	34.2
concentration: 65.5 (µM), S9 metabolic activation: with S9, exposure time: 3-4 hours	–	–	35.3
concentration: 65.5 (µM), S9 metabolic activation: without S9, exposure time: 24 hours	–	–	30.7
concentration: 81.9 (µM), S9 metabolic activation: with S9, exposure time: 3-4 hours	–	–	35.3
concentration: 81.9 (µM), S9 metabolic activation: without S9, exposure time: 24 hours	–	–	30.1
concentration: 102 (µM), S9 metabolic activation: without S9, exposure time: 24 hours	–	–	30.9
concentration: 128 (µM), S9 metabolic activation: without S9, exposure time: 24 hours	–	–	27.1
concentration: 160 (µM), S9 metabolic activation: without S9, exposure time: 24 hours	–	–	27.03
concentration: 200 (µM), S9 metabolic activation: without S9, exposure time: 24 hours	–	–	26.7
